Laboratory results: patent US6479653

Biological target: GF4 (GAL4 DNA binding domain fused to four FKBP12) (yeast; human) (UniProt P04386)
Test: cell-based or functional assay

Substance	SEAP reporter gene expression, HT1080 B cells, 10 nM rapamycin, high amount of activation domain plasmid; fold over GF4+RS [fold]
RMTS (FRB - lactose repressor minimal tetramerization domain 324-360 - p65 activation domain) (from UniProt P42345 2025-2113; P03023 324-360; Q04206 361-550)	2
RMTSV (RMTS fused to VP16 activation domain) (from UniProt P42345 2025-2113; P03023 324-360; Q04206 361-550; P06492 419-490)	4
